Experimental data from patent EP4674868A1 (Jiangsu Hengrui Pharmaceuticals Co., Ltd., dated 2026).

Legend:
[1] = biological target: T1, human 4-1BB on the surface of HEK293 cells (HEK293-Hu4-1BB) (human, UniProt Q07011 24-255); experiment: cell-based or functional assay
[2] = biological target: T2, human CD40 on the surface of HEK293 cells (HEK293-HuCD40) (human, UniProt P25942 21-277); experiment: cell-based or functional assay
[3] = biological target: T3, human FAP on the surface of CHO-K1 cells (CHO-K1-HuFAP) (human, UniProt Q12884 1-760); experiment: FACS, CHO-K1-HuFAP cells
T3 construct: whole, on cells; also called CHO cell line overexpressing human FAP; FAP on the surface of CHO-K1-HuFAP cells

[4] = biological target: T2, human CD40 on the surface of HEK293 …; experiment: FACS, HEK293-HuCD40 cells
[5] = biological target: T1, human 4-1BB on the surface of HEK293 …; experiment: FACS, HEK293-Hu4-1BB cells
[6] = biological target: T1, human 4-1BB on the surface of HEK293 …; experiment: cell-based or functional assay; remark: listed apart in the source
[7] = biological target: T1, human 4-1BB on the surface of HEK293 …; experiment: cell-based or functional assay; remark: listed apart in the source
[8] = biological target: T2, human CD40 on the surface of HEK293 …; experiment: cell-based or functional assay; remark: listed apart in the source
[9] = biological target: T2, human CD40 on the surface of HEK293 …; experiment: cell-based or functional assay; remark: listed apart in the source
[10] = biological target: T3, human FAP on the surface of CHO-K1 …; experiment: FACS, CHO-K1-HuFAP cells; remark: listed apart in the source
[11] = biological target: T3, human FAP on the surface of CHO-K1 …; experiment: FACS, CHO-K1-HuFAP cells; remark: listed apart in the source
[12] = biological target: T2, human CD40 on the surface of HEK293 …; experiment: FACS, HEK293-HuCD40 cells; remark: listed apart in the source
[13] = biological target: T2, human CD40 on the surface of HEK293 …; experiment: FACS, HEK293-HuCD40 cells; remark: listed apart in the source
[14] = biological target: T1, human 4-1BB on the surface of HEK293 …; experiment: FACS, HEK293-Hu4-1BB cells; remark: listed apart in the source
[15] = biological target: T1, human 4-1BB on the surface of HEK293 …; experiment: FACS, HEK293-Hu4-1BB cells; remark: listed apart in the source

T2 sequence (P25942 21-277): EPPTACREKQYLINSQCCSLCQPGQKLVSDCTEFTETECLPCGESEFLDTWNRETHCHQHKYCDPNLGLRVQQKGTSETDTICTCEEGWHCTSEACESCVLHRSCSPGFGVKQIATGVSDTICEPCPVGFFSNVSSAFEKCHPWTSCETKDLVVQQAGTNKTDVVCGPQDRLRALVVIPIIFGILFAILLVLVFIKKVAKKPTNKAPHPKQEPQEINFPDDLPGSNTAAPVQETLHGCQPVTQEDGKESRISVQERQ
T1 sequence (Q07011 24-255): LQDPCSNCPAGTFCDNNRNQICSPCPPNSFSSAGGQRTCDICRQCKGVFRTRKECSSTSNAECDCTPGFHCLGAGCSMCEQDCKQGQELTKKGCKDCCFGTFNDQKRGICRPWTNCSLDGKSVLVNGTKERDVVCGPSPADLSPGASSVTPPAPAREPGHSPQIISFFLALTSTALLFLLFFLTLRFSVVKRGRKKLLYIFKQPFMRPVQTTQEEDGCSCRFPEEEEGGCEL

4-1BB/NF-κB luciferase reporter, CD40-crosslinked, EC50 [1]: 0.02 nM | 4-1BB/NF-κB luciferase reporter, CD40-crosslinked, Fold change in Emax [1]: 4.61 fold | 4-1BB/NF-κB luciferase reporter, FAP-crosslinked, EC50 [1]: 0.07 nM | 4-1BB/NF-κB luciferase reporter, FAP-crosslinked, Fold change in Emax [1]: 15 fold | 4-1BB/NF-κB luciferase reporter, uncrosslinked, Fold change in Emax [1]: 1.34 fold | CD40/NF-κB reporter (HEK-Blue CD40L), 4-1BB-crosslinked, EC50 [2]: 3.97 nM | CD40/NF-κB reporter (HEK-Blue CD40L), 4-1BB-crosslinked, Fold change in Emax [2]: 7.87 fold | CD40/NF-κB reporter (HEK-Blue CD40L), FAP-crosslinked, EC50 [2]: 0.66 nM | CD40/NF-κB reporter (HEK-Blue CD40L), FAP-crosslinked, Fold change in Emax [2]: 11.8 fold | CD40/NF-κB reporter (HEK-Blue CD40L), uncrosslinked, Fold change in Emax [2]: 3.41 fold | EC50 [3]: 1.71 nM | Maximum fluorescence value [3]: 68700 | EC50 [4]: 4.17 nM | Maximum fluorescence value [4]: 66500 | EC50 [5]: 0.5 nM | Maximum fluorescence value [5]: 10800
B1: B21546901 (anti-FAP/4-1BB/CD40 trispecific antibody) (other)
heavy: QVQLQQSGVEVKKPGASVTVSCRASGYSFADHFIHWVRQAPGQGFQWMGWINPNRGVTHHAQDFQGRVAMTRDMSTDTVYMELTSLRSDDTAVYYCARDASLTARPYYFYGFDVWGQGTLVTVSS[human IgG1 constant region with changes not given here]GGGGSGGGGSQVQLVESGGGLVQPGGSLRLSCSASGFTFSSYAMSWVRQAPGKGLEWVSDINSGGQSTFYADSVKGRFTISRDNAKNTLYLQMNSLRAEDTAVYYCAKHPLTYTIATMNDYDYWGQGTQVTVSSGGGGSGGGGSEVQLVESGGGLVQPGGSLRLSCAASGFTFSRYGMKWVRQAPGKGLEWVSTINSHGDTTYYADSVKGRFTISRDNAKNSLYLQMNSLRAEDTAVYYCLRIDYSDYSSRGQGTQVTVSAA
light: DIQMTQSPSSVSASVGDRVTITCRASQGISSWLAWYQQKPGKAPKLLIYAASSLQSGVPSRFSGSGSGTDFTLTISSLQPEDFATYYCQQANSFPPAFGQGTKVEIKRTVAAPSVFIFPPSDEQLKSGTASVVCLLNNFYPREAKVQWKVDNALQSGNSQESVTEQDSKDSTYSLSSTLTLSKADYEKHKVYACEVTHQGLSSPVTKSFNRGEC

4-1BB/NF-κB luciferase reporter, CD40-crosslinked, Fold change in Emax [6]: 8.23 fold | 4-1BB/NF-κB luciferase reporter, FAP-crosslinked, EC50 [6]: 0.221 nM | 4-1BB/NF-κB luciferase reporter, FAP-crosslinked, Fold change in Emax [6]: 12.7 fold | 4-1BB/NF-κB luciferase reporter, uncrosslinked, Fold change in Emax [6]: 1.53 fold | 4-1BB/NF-κB luciferase reporter, CD40-crosslinked, EC50 [7]: 0.07 nM | 4-1BB/NF-κB luciferase reporter, CD40-crosslinked, Fold change in Emax [7]: 4.37 fold | 4-1BB/NF-κB luciferase reporter, FAP-crosslinked, EC50 [7]: 0.173 nM | 4-1BB/NF-κB luciferase reporter, FAP-crosslinked, Fold change in Emax [7]: 7.71 fold | 4-1BB/NF-κB luciferase reporter, uncrosslinked, Fold change in Emax [7]: 1.14 fold | CD40/NF-κB reporter (HEK-Blue CD40L), 4-1BB-crosslinked, EC50 [8]: 0.309 nM | CD40/NF-κB reporter (HEK-Blue CD40L), 4-1BB-crosslinked, Fold change in Emax [8]: 8.79 fold | CD40/NF-κB reporter (HEK-Blue CD40L), FAP-crosslinked, EC50 [8]: 0.013 nM | CD40/NF-κB reporter (HEK-Blue CD40L), FAP-crosslinked, Fold change in Emax [8]: 11.7 fold | CD40/NF-κB reporter (HEK-Blue CD40L), uncrosslinked, Fold change in Emax [8]: 8.63 fold | CD40/NF-κB reporter (HEK-Blue CD40L), 4-1BB-crosslinked, EC50 [9]: 1.33 nM | CD40/NF-κB reporter (HEK-Blue CD40L), 4-1BB-crosslinked, Fold change in Emax [9]: 6.52 fold | CD40/NF-κB reporter (HEK-Blue CD40L), FAP-crosslinked, EC50 [9]: 0.19 nM | CD40/NF-κB reporter (HEK-Blue CD40L), FAP-crosslinked, Fold change in Emax [9]: 8.3 fold | CD40/NF-κB reporter (HEK-Blue CD40L), uncrosslinked, Fold change in Emax [9]: 6.09 fold | EC50 [10]: 2.23 nM | Maximum fluorescence value [10]: 121000 | EC50 [11]: 1.24 nM | Maximum fluorescence value [11]: 60700 | EC50 [12]: 4.05 nM | Maximum fluorescence value [12]: 79700 | EC50 [13]: 5.29 nM | Maximum fluorescence value [13]: 63300 | EC50 [14]: 0.36 nM | Maximum fluorescence value [14]: 8640 | EC50 [15]: 0.402 nM | Maximum fluorescence value [15]: 10800
B2: B977703 (anti-FAP/4-1BB/CD40 trispecific antibody) (other)
heavy: QVQLQQSGVEVKKPGASVTVSCRASGYSFADHFIHWVRQAPGQGFQWMGWINPNRGVTHHAQDFQGRVAMTRDMSTDTVYMELTSLRSDDTAVYYCARDASLTARPYYFYGFDVWGQGTLVTVSS[human IgG1 constant region with changes not given here]GGGGSGGGGSQVQLVESGGGLVQPGGSLRLSCSASGFTFSSYAMSWVRQAPGKGLEWVSDINSGGESTFYEDSVKGRFTISRDNAKNTLYLQMNSLRAEDTAVYYCAKHPLTYTIATMNDYDYWGQGTLVTVSSGGGGSGGGGSEVQLVESGGGLVQPGGSLRLSCAASGFTFSRYGMKWVRQAPGKGLEWVSTINSHGDTTYYADSVKGRFTISRDNAKNSLYLQMNSLRAEDTAVYYCLRIDYSDYSSRGQGTLVTVSS
light: B1 light

4-1BB/NF-κB luciferase reporter, CD40-crosslinked, EC50 [6]: 0.054 nM | 4-1BB/NF-κB luciferase reporter, CD40-crosslinked, Fold change in Emax [6]: 8.41 fold | 4-1BB/NF-κB luciferase reporter, FAP-crosslinked, EC50 [6]: 0.142 nM | 4-1BB/NF-κB luciferase reporter, FAP-crosslinked, Fold change in Emax [6]: 10.9 fold | 4-1BB/NF-κB luciferase reporter, uncrosslinked, Fold change in Emax [6]: 1.54 fold | 4-1BB/NF-κB luciferase reporter, CD40-crosslinked, EC50 [7]: 0.033 nM | 4-1BB/NF-κB luciferase reporter, CD40-crosslinked, Fold change in Emax [7]: 5.5 fold | 4-1BB/NF-κB luciferase reporter, FAP-crosslinked, EC50 [7]: 0.146 nM | 4-1BB/NF-κB luciferase reporter, FAP-crosslinked, Fold change in Emax [7]: 7.98 fold | 4-1BB/NF-κB luciferase reporter, uncrosslinked, Fold change in Emax [7]: 1.01 fold | CD40/NF-κB reporter (HEK-Blue CD40L), 4-1BB-crosslinked, EC50 [8]: 0.071 nM | CD40/NF-κB reporter (HEK-Blue CD40L), 4-1BB-crosslinked, Fold change in Emax [8]: 10.7 fold | CD40/NF-κB reporter (HEK-Blue CD40L), FAP-crosslinked, EC50 [8]: 0.017 nM | CD40/NF-κB reporter (HEK-Blue CD40L), FAP-crosslinked, Fold change in Emax [8]: 10.9 fold | CD40/NF-κB reporter (HEK-Blue CD40L), uncrosslinked, Fold change in Emax [8]: 4.79 fold | CD40/NF-κB reporter (HEK-Blue CD40L), 4-1BB-crosslinked, EC50 [9]: 0.253 nM | CD40/NF-κB reporter (HEK-Blue CD40L), 4-1BB-crosslinked, Fold change in Emax [9]: 5.92 fold | CD40/NF-κB reporter (HEK-Blue CD40L), FAP-crosslinked, EC50 [9]: 0.137 nM | CD40/NF-κB reporter (HEK-Blue CD40L), FAP-crosslinked, Fold change in Emax [9]: 6.75 fold | CD40/NF-κB reporter (HEK-Blue CD40L), uncrosslinked, Fold change in Emax [9]: 2.92 fold | EC50 [10]: 2.24 nM | Maximum fluorescence value [10]: 127000 | EC50 [11]: 0.92 nM | Maximum fluorescence value [11]: 67000 | EC50 [12]: 6.54 nM | Maximum fluorescence value [12]: 75600 | EC50 [13]: 4.24 nM | Maximum fluorescence value [13]: 63800 | EC50 [14]: 0.332 nM | Maximum fluorescence value [14]: 8520 | EC50 [15]: 0.227 nM | Maximum fluorescence value [15]: 10600
B3: B977704 (anti-FAP/4-1BB/CD40 trispecific antibody) (other)
heavy: QVQLQQSGVEVKKPGASVTVSCRASGYSFADHFIHWVRQAPGQGFQWMGWINPNRGVTHHAQDFQGRVAMTRDMSTDTVYMELTSLRSDDTAVYYCARDASLTARPYYFYGFDVWGQGTLVTVSS[human IgG1 constant region with changes not given here]GGGGSGGGGSQVQLVESGGGLVQPGGSLRLSCSASGFTFSSYAMSWVRQAPGKGLEWVSDINSGGESTFYEDSVKGRFTISRDNAKNTLYLQMNSLRAEDTAVYYCAKHPLTYTIATMNDYDYWGQGTLVTVSS
light: DIQMTQSPSSVSASVGDRVTITCRASQGISSWLAWYQQKPGKAPKLLIYAASSLQSGVPSRFSGSGSGTDFTLTISSLQPEDFATYYCQQANSFPPAFGQGTKVEIKRTVAAPSVFIFPPSDEQLKSGTASVVCLLNNFYPREAKVQWKVDNALQSGNSQESVTEQDSKDSTYSLSSTLTLSKADYEKHKVYACEVTHQGLSSPVTKSFNRGECGGGGSGGGGSEVQLVESGGGLVQPGGSLRLSCAASGFTFSRYGMKWVRQAPGKGLEWVSTINSHGDTTYYADSVKGRFTISRDNAKNSLYLQMNSLRAEDTAVYYCLRIDYSDYSSRGQGTLVTVSS

Like-named read-outs stand apart in the source and are kept apart here. Each block holds one binder with its values, some of them ahead of it.
